# Assay results published in a collection of fitness landscapes (doi:10.1016/j.celrep.2020.107928).
# Whole data set: some 81,000 sequences, median “one-hybrid fitness for binding NBS DNA” near -0.1, cut for the highest 2% near 0.36. Some of the results follow.
# B1: Caulobacter ParB omega fusion; a variant is named by its letters at X, in order, B8GW30 (parent)
# chain: MESVVVGEPGMSEGRRGLGRGLSALLGEVDAAPAQAPGEQLGGSREAPIEILQRNPDQPRRTFREEDLEDLSNSIREKGVLQPILVRPSPDTAGEYQIVAGERAWRAAQRAGLKTVPIMVRELDDLAVLEIGIIENVQRADLNVLEEALSYKVLMEKFERTQENIAQTIGKSXSHVANXMRLLXLPDEVQSYLVSGELTAXHARAIAAAADPVALAKQIIEGGLSVRETEALARKAPNLSAGKSKGGRPPRVKDTDTQALESDLSSVLGLDVSIDHRGSTGTLTITYATLEQLDDLCNRLTRGI
# Variants of: B1
# Assay: one-hybrid fitness for binding NBS DNA (the Noc-binding site; scaled: cognate 1, non-cognate 0); higher = stronger binding
# Conditions: with NBS DNA site
# In short: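 The reporter was HIS3, with the binding site 19 bp from the promoter, in E. coli USO used for bacterial one-hybrid selection of Caulobacter ParB libraries with four specificity codons randomised. Growth was on M9 lacking histidine, with 0.1 mM IPTG and 5 mM 3-AT, for 48 hours at 37°C. Illumina sequencing covered plasmids before and after selection; three replicate libraries were pooled and variants with under 10 reads dropped. A fitness score is the log change in variant-to-wild-type read ratio, rescaled to the cognate and non-cognate references.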
row,Variant,one-hybrid fitness for binding NBS DNA
1,HAKC,≤ 0.2
2,CLDG,≤ 0.2
3,TNFR,≤ 0.2
4,AEYL,≤ 0.2
5,QAHA,0.279
6,PLRT,≤ 0.2
7,YFPR,≤ 0.2
8,GLLM,≤ 0.2
9,CYRS,≤ 0.2
10,NSVT,≤ 0.2
11,NPPG,≤ 0.2
12,RKCS,0.525
13,HATN,≤ 0.2
14,RYDC,≤ 0.2
15,RGVN,≤ 0.2
16,KVRT,≤ 0.2
17,VWVT,≤ 0.2
18,SPAW,≤ 0.2
19,DDMS,≤ 0.2
20,PPAR,≤ 0.2
21,SQAS,≤ 0.2
22,CHPN,≤ 0.2
23,FTVS,≤ 0.2
24,DSWS,≤ 0.2
25,ATMS,≤ 0.2
26,TRHM,≤ 0.2

row,Variant,one-hybrid fitness for binding NBS DNA
1,HIDA,≤ 0.2
2,DHTE,≤ 0.2
3,ERPR,≤ 0.2
4,GQDK,≤ 0.2
5,APPV,≤ 0.2
6,TTVD,≤ 0.2
7,WSCC,≤ 0.2
8,YYPI,≤ 0.2
9,LVTC,≤ 0.2
10,ALTH,≤ 0.2
11,VTLS,≤ 0.2
12,ILAC,≤ 0.2
13,ISYQ,≤ 0.2
14,QGYL,≤ 0.2
15,QDPF,≤ 0.2
16,QTNM,0.34
17,LKST,≤ 0.2
18,CIKT,≤ 0.2
19,NRTL,≤ 0.2
20,LDLP,≤ 0.2
21,PYAC,≤ 0.2
22,MSQP,≤ 0.2
23,EDMV,≤ 0.2
24,GPIS,≤ 0.2
25,WVSF,≤ 0.2
26,NIRY,≤ 0.2

row,Variant,one-hybrid fitness for binding NBS DNA
1,QPDW,≤ 0.2
2,DHTW,≤ 0.2
3,NLLG,≤ 0.2
4,RHKC,0.265
5,GTLC,≤ 0.2
6,IGRR,≤ 0.2
7,ASHP,≤ 0.2
8,ATLF,≤ 0.2
9,VDDR,≤ 0.2
10,ASDW,≤ 0.2
11,GRLP,≤ 0.2
12,GHSR,≤ 0.2
13,RKMK,≤ 0.2
14,CCKG,≤ 0.2
15,QAQS,0.328
16,MARA,≤ 0.2
17,MNTV,≤ 0.2
18,YWPV,≤ 0.2
19,RQHC,≤ 0.2
20,SYHV,≤ 0.2
21,NQPT,≤ 0.2
22,HDIG,≤ 0.2
23,VEYF,≤ 0.2
24,SRTW,≤ 0.2
25,TRCR,0.335
26,QDMS,≤ 0.2

row,Variant,one-hybrid fitness for binding NBS DNA
1,QDGS,≤ 0.2
2,LPET,≤ 0.2
3,PYYM,≤ 0.2
4,RLVL,≤ 0.2
5,KETC,≤ 0.2
6,DPKI,≤ 0.2
7,KYAT,≤ 0.2
8,AYNR,≤ 0.2
9,PKLK,≤ 0.2
10,ESNY,≤ 0.2
11,PTTM,≤ 0.2
12,NGDM,≤ 0.2
13,LSSL,≤ 0.2
14,ASVN,≤ 0.2
15,LCKR,0.207
16,MRKI,≤ 0.2
17,TCET,≤ 0.2
18,DFVR,≤ 0.2
19,HPDN,≤ 0.2
20,TQAG,≤ 0.2
21,NLRG,≤ 0.2
22,WIYW,≤ 0.2
23,DRAY,≤ 0.2
24,GLTP,≤ 0.2
25,GKRR,≤ 0.2
26,PIKS,≤ 0.2

row,Variant,one-hybrid fitness for binding NBS DNA
1,RAAG,≤ 0.2
2,PNCV,≤ 0.2
3,SRYH,≤ 0.2
4,TQVF,≤ 0.2
5,KNSR,≤ 0.2
6,HVIA,≤ 0.2
7,TNKN,≤ 0.2
8,LPVG,≤ 0.2
9,DGVF,≤ 0.2
10,PHQG,≤ 0.2
11,SHTA,≤ 0.2
12,EHRA,≤ 0.2
13,TAFS,≤ 0.2
14,VAKR,0.221
15,DCRT,0.246
16,RPAW,≤ 0.2
17,LTPQ,≤ 0.2
18,KNRK,≤ 0.2
19,NAFS,≤ 0.2
20,IFCR,≤ 0.2
21,LDNC,≤ 0.2
22,DDPS,≤ 0.2
23,QCVK,≤ 0.2
24,LHIR,≤ 0.2
25,PCRW,≤ 0.2
26,LRSH,≤ 0.2

row,Variant,one-hybrid fitness for binding NBS DNA
1,GPFS,≤ 0.2
2,ATTV,≤ 0.2
3,LCGA,≤ 0.2
4,YYKK,≤ 0.2
5,WASM,≤ 0.2
6,FMAL,≤ 0.2
7,MHTA,≤ 0.2
8,TQIK,≤ 0.2
9,ANKG,≤ 0.2
10,GHAA,≤ 0.2
11,WVAG,≤ 0.2
12,RCSR,0.527
13,SMRS,≤ 0.2
14,RAVG,≤ 0.2
15,CNGG,≤ 0.2
16,QKKM,0.409
17,VRDS,≤ 0.2
18,ILYD,≤ 0.2
19,DSGS,≤ 0.2
20,GMGY,≤ 0.2
21,ELAS,≤ 0.2
22,PIPS,≤ 0.2
23,GACF,≤ 0.2
